From PubChem BioAssay AID360 (National Center for Advancing Translational Sciences (NCATS), 2006)
The campaign covered roughly 48,000 compounds. About 550 (1.1%) were called active. About 4% were inconclusive and are not listed. No stated cut-off is given here; in the data, active means potency below about 15 µM; inconclusive means mostly about 16 µM to 33 µM; inactive means weaker than that. Some of the results follow.

Target: Lysosomal acid glucosylceramidase (Homo sapiens) (UniProt P04062)
Assay: Glucocerebrosidase;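 further: the screen sought inhibitors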
Conditions: purified enzyme, resorufin glucoside fluorescence (screen aimed at inhibitors), 20 min; series mostly up to 77 µM
In short: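 Compounds titrated against 0.2 nM normal enzyme, 30 uM resorufin beta-D-glucopyranoside substrate, citrate/phosphate buffer with taurocholate and tween-20, pH 5.9. Reaction ran 20 min at room temperature; fluorescence (Ex 548/Em 600) gave AC50.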
Potency means the concentration at half of the fitted maximal effect.

UniProt P04062, sequence (P04062 whole entry, looked up): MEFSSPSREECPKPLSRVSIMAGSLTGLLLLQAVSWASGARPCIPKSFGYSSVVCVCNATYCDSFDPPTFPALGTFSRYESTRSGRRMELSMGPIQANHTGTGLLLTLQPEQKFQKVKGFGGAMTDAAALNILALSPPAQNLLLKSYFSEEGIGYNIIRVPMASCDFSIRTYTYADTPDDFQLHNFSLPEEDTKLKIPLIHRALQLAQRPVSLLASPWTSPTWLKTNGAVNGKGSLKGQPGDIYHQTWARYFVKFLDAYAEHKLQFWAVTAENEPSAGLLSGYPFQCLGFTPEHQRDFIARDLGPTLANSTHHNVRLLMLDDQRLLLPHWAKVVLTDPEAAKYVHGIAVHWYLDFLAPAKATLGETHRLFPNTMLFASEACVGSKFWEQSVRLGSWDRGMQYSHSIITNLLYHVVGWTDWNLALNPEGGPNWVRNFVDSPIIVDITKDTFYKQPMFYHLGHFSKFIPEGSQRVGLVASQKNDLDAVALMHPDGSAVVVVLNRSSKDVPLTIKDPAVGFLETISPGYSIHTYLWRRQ

Potency, inactive:
CC(C)Cc1nc2oc3c(N4CCN(C)CC4)ncnc3c2c2c1CCCC2 > 76.9 µM
COC(=O)c1[nH]c2cc(OC)ccc2c1NC(=O)CCN1CCN(c2cccc(C)c2C)CC1 > 76.9 µM
CCN1C(=O)NC(c2cc(Br)ccc2OC)C(C(=O)OC)=C1C (stereo not given) > 76.9 µM
O=C(CC1CCCC1)OCn1nnc2ccccc2c1=O > 76.9 µM
Nc1c(C(=O)Nc2ccc(F)cc2)sc2nc(-c3ccco3)ccc12 > 76.9 µM
C=CCSC1=C(C#N)C(c2ccccc2OCC)CC(=O)N1 (stereo not given) > 76.9 µM
COc1ccc(CCN2CC3=C(C2=O)C(c2ccccc2)NC(=O)N3C)cc1OC (stereo not given) > 76.9 µM
O=C(O)c1ccc(CNc2ccccc2C(=O)O)cc1 > 76.9 µM
O=C1CCCc2c1cc(C(=O)Nc1ccc(Cl)cn1)c(=O)n2-c1ccccc1 > 76.9 µM
O=C(CCc1ccc(S(=O)(=O)N2CCOCC2)cc1)OCc1nc2ccccc2s1 > 76.9 µM
Cc1ccccc1NC(=O)CCN1CCCCCC1 > 76.9 µM
COc1ccc(CN(C(=O)c2ccco2)C2CC(C)N(C)CC2C)cc1 (stereo not given) > 76.9 µM
CN(C)c1ccc(-c2nn3c(-c4cccnc4)nnc3s2)cc1 > 76.9 µM
COC(=O)C1=CN(C2CC2)C=C(C(=O)OC)C1c1ccccc1OC > 76.9 µM
O=C(CSc1ncnc2ccccc12)Nc1ccc(N2CCOCC2)cc1 > 76.9 µM
CNC(=O)CCn1nc(-c2ccc(Cl)cc2)c2ccccc2c1=O > 76.9 µM
COc1ccc(N2C(=O)CCC(C(=O)NCCN3CCOCC3)C2c2ccc(OC)c(OC)c2)cc1 (stereo not given) > 76.9 µM
CCOC(=O)Cc1csc(NC(=O)CSc2nnc(-c3ccc(OC)cc3)n2C)n1 > 76.9 µM
COc1ccc(NC(=O)CCN2CCCCC2)cc1 > 76.9 µM
CCCC(c1nnnn1Cc1cccs1)N1CCN(c2ccc(OC)cc2)CC1 (stereo not given) > 76.9 µM
CCOC(=O)N1CCC(NS(=O)(=O)c2ccc3c(c2)OCC(=O)N3)CC1 > 76.9 µM
O=C(c1ccc(F)cc1)C1CCN(C(=O)N2CCOCC2)CC1 > 76.9 µM
CCN(CC(=O)NC1CCCCC1)S(=O)(=O)c1ccc(Cl)cc1 > 76.9 µM
Cc1ccc(CN2C(=O)CCC2C(=O)NCc2ccc(F)cc2)cc1 (stereo not given) > 76.9 µM
Cc1cc(-c2nnc3n2N=C(c2ccc(-c4ccccc4)cc2)CS3)n[nH]1
